Values joined by “and” are separate entries in the source; they are usually repeats but may differ in a detail not shown here. Identical values can stand only once. For some of these results: This list holds what a sample rich in hits left over. Records with an inconclusive call do not appear. Some structures have more than one record in an assay (separate samples or runs), and their calls can disagree. The entries are a selection whose mix differs from that of the whole data set. Active and inactive are the calls of the source. Calls follow the shape of the dose curve; as a rule, active = well fitted curve in the direction sought with a large enough effect in the repeat runs; inconclusive = weak or mixed curves; inactive = no such curve, though single readings can be large; an effect the other way counts as inactive or inconclusive.
What was measured:
[1] = qHTS assay for identifying genotoxic compounds that show differential cytotoxicity against isogenic chicken DT40 cell lines with known DNA damage response pathways - wild type cell line (AID 743012); also: nearly all actives have a fitted effect of over 60% in size; also: potency is read from the fitted curve at half-maximal effect
Outline: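 First, wild type DT40 cells were plated at 300 per well and equilibrated about 0.5 h at 37 C/5% CO2. Next, compounds in DMSO were added and exposure lasted 40 h. Finally, CellTiter-Glo was added for 30 min at room temperature and luminescence recorded.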

[2] = qHTS assay for identifying genotoxic compounds that show differential cytotoxicity against isogenic chicken DT40 cell lines with known DNA damage response pathways - Rev3 mutant cell line (AID 743014); also: nearly all actives have a fitted effect of over 55% in size; also: potency is read from the fitted curve at half-maximal effect
[3] = qHTS assay for identifying genotoxic compounds that show differential cytotoxicity against isogenic chicken DT40 cell lines with known DNA damage response pathways - Rad54/Ku70 mutant cell line (AID 743015); also: nearly all actives have a fitted effect of over 60% in size; also: potency is read from the fitted curve at half-maximal effect
[4] = molecular target: Cytochrome P450 2D6 (Homo sapiens) (UniProt P10635); assay: Cytochrome P450 Family 2 Subfamily D Member 6 (CYP2D6) small molecule antagonists: luciferase reporter qHTS assay (AID 1671196); also: nearly all actives have a fitted effect of over 50% in size; also: potency is read from the fitted curve at half-maximal effect
Chain of UniProt P10635 (P10635 whole entry, looked up): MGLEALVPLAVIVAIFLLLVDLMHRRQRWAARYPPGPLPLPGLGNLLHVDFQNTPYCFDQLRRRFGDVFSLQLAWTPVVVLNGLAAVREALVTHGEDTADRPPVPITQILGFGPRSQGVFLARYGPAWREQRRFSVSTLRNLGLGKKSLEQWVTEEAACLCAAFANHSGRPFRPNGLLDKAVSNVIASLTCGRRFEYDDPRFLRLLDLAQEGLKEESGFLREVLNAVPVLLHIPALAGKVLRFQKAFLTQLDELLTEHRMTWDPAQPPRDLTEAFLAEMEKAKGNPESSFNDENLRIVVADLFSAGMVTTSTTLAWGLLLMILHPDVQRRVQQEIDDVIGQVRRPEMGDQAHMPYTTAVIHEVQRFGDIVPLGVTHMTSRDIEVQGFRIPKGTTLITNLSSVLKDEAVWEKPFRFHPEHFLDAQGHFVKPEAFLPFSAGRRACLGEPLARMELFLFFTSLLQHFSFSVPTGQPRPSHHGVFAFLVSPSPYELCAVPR
Outline: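 Each well received CYP2D6 with its proluciferin substrate and chemical, sat 10 min, then got NADPH regeneration solution for 1 h at room temperature. Luminescence in RLU served as the activity measure.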

[5] = molecular target: Cytochrome P450 2C19 (Homo sapiens) (UniProt P33261); assay: Cytochrome P450 Family 2 Subfamily C Member 19 (CYP2C19) small molecule antagonists: luciferase reporter qHTS assay (AID 1671197); also: nearly all actives have a fitted effect of over 65% in size; also: potency is read from the fitted curve at half-maximal effect
Chain of UniProt P33261 (P33261 whole entry, looked up): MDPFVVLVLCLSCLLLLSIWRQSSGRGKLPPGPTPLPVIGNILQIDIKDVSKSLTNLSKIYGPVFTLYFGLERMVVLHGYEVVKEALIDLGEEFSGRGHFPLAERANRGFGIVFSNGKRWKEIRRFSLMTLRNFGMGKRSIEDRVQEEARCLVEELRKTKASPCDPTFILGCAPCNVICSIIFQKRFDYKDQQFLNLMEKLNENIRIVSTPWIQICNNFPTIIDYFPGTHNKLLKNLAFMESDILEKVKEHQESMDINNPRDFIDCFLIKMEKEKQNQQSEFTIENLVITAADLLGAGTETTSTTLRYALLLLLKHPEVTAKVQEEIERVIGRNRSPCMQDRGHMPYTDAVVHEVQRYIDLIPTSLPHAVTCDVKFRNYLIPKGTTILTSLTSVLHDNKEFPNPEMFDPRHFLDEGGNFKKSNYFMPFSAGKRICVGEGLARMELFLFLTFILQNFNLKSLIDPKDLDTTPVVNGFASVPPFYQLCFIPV
Outline: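 Light output is proportional to CYP2C19 activity: proluciferin substrate is converted to luciferin, then detected by a luciferin detection reagent that also stops the 1 h, 37C NADPH-driven reaction. Ketoconazole serves as positive control.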

[6] = molecular target: Cytochrome P450 2C9 (Homo sapiens) (UniProt P11712); assay: Cytochrome P450 Family 2 Subfamily C Member 9 (CYP2C9) small molecule antagonists: luciferase reporter qHTS assay (AID 1671198); also: nearly all actives have a fitted effect of over 50% in size; also: potency is read from the fitted curve at half-maximal effect
Chain of UniProt P11712 (P11712 whole entry, looked up): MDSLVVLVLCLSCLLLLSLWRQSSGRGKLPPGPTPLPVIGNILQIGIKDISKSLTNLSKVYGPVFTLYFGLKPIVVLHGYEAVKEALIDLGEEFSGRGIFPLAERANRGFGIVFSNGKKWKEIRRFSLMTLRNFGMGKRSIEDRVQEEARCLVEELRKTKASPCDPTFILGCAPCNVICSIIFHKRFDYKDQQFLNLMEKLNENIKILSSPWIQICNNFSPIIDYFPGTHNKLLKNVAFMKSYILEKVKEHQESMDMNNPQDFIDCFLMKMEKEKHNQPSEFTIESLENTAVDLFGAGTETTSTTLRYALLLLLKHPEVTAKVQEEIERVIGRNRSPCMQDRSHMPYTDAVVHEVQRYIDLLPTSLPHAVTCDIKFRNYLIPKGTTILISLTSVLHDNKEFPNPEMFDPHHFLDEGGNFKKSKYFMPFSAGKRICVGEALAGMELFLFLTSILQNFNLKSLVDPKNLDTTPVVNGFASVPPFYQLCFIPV
Outline: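 P450-Glo proluciferin substrate with CYP2C9 enzyme; 10 min RT preincubation, then NADPH regeneration 1 h at 37C; luciferin detection reagent 20 min RT, luminescence in relative luminescence units.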

[7] = molecular target: Cytochrome P450 1A2 (Homo sapiens) (UniProt P05177); assay: Cytochrome P450 Family 1 Subfamily A Member 2 (CYP1A2) small molecule antagonists: luciferase reporter qHTS assay (AID 1671199); settings: P450-Glo CYP1A2 enzyme, luciferin luminescence, 1 h; at 115 µM (top of the series) unless noted; also: nearly all actives have a fitted effect of over 50% in size
Chain of UniProt P05177 (P05177 whole entry, looked up): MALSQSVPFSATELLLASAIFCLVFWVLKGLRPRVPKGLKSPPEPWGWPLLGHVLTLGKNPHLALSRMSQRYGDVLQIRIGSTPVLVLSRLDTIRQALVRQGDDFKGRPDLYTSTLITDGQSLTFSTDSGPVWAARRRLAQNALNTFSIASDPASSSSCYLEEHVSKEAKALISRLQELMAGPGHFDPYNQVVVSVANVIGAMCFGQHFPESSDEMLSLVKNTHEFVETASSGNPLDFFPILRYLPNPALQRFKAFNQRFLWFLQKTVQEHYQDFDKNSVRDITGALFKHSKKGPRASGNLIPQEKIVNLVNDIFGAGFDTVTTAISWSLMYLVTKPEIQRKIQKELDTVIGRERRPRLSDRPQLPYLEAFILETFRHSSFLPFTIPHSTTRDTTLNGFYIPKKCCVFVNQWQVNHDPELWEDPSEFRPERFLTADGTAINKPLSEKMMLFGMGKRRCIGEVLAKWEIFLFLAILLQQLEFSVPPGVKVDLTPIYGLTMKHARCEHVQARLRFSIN
Outline: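 Enzymatic CYP1A2 assay, human, luminescent: 10 min compound–enzyme–substrate preincubation, 1 h NADPH-dependent turnover, 20 min detection step, room temperature throughout. Reduced light indicates lower CYP1A2 activity.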

[8] = molecular target: Cytochrome P450 3A4 (Homo sapiens) (UniProt P08684); assay: Cytochrome P450 Family 3 Subfamily A Member 4 (CYP3A4) small molecule antagonists: luciferase reporter qHTS assay (AID 1671201); also: nearly all actives have a fitted effect of over 50% in size; also: potency is read from the fitted curve at half-maximal effect
Chain of UniProt P08684 (P08684 whole entry, looked up): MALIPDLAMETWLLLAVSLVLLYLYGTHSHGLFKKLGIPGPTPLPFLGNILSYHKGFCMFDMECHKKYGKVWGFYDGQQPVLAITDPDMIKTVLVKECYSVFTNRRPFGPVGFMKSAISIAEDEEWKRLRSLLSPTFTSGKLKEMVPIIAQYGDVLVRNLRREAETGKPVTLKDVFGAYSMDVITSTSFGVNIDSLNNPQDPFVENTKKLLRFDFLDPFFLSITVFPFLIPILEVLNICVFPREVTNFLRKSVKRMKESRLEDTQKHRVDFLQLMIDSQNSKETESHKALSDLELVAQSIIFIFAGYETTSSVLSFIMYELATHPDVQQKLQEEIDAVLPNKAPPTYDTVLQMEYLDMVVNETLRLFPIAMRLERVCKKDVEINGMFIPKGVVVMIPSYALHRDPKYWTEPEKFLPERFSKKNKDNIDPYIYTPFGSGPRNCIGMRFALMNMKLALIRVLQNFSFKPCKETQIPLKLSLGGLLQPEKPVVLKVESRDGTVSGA
Outline: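 Setup: enzyme-substrate mix, compound pin transfer, 10 min RT. Reaction: NADPH regeneration solution, 1 h RT. Readout: detection reagent stops turnover, luminescence measured after 20 min, expressed in relative luminescence units.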

[9] = molecular target: Nuclear receptor subfamily 1 group I member 2 (Homo sapiens) (UniProt O75469); assay: CYP3A4 induction through human pregnane X receptor (PXR) by small molecules, qHTS assay (AID 1346984); settings: DPX-2 HepG2 PXR, CYP3A4-luciferin luminescence, 24 h; at 46.1 µM (top of the series) unless noted; also: nearly all actives have a fitted effect of over 40% in size
Outline: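 Readings come from a luciferase reporter: DPX-2 cells, which are HepG2 cotransfected with PXR and a CYP3A4-promoter construct, were exposed to test compounds for 24 h at 37C before One-Glo detection.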
% is scaled to controls: 0 for no effect and ±100 for the full control effect.

CC(C)CC(=O)O
inactive: Potency [1] | Potency [2] | Potency [3] | Potency [6] | activity change, negative = inhibition [7] -18.3% | Potency [8]
active: Potency [4] 69.4 µM | Potency [5] 69.4 µM

NC(N)=NCCN1CCCCCCC1
inactive: Potency [1] | Potency [2] | Potency [3]

NC(=O)NNc1ccccc1
inactive: Potency [1] | Potency [2] | Potency [3]

NCCC[C@H](N)C(=O)O
inactive: Potency [1] | Potency [2] | Potency [3]

CS(=O)(=O)c1ccc([C@@H](C[C@H]2CCC(=O)C2)C(=O)Nc2cnccn2)cc1Cl
inactive: Potency [1] | Potency [2] | Potency [3] | Potency [4] | Potency [5] | activity change, negative = inhibition [7] -10.3%

CCCCC(=O)OCC(=O)[C@H]1[C@H](C)C[C@H]2[C@@H]3C[C@H](F)C4=CC(=O)C=C[C@]4(C)[C@@]3(F)[C@@H](O)C[C@@]21C
active: Potency [1] 26.6 µM | Potency [2] 26.6 µM | Potency [3] 26.6 µM | Potency [5] 24.5 µM | Potency [6] 8.71 µM
inactive: activity change, negative = inhibition [7] -16.5% [at 53 µM]

Cc1cc(/C=C/c2ccc3cc(N(C)C)ccc3[n+]2C)c(C)n1-c1ccccc1
active: Potency [1] 0.254 µM | Potency [2] 0.569 µM | Potency [3] 0.285 µM
inactive: activation [9] -11.6% [at 20.6 µM]

CCC(C)(CN(C)C)OC(=O)c1ccccc1 (centres undefined)
inactive: Potency [1] | Potency [2] | Potency [3]

COCC(=O)Nc1cc(Sc2ccccc2)ccc1N=C(NC(=O)OC)NC(=O)OC
active: Potency [1] 21.1 µM | Potency [2] 26.6 µM | Potency [3] 26.6 µM
inactive: activation [9] -4.42%

COC(=O)C1=C(C)NC(C)=C(C(=O)OC)C1c1ccccc1[N+](=O)[O-]
inactive: Potency [4]
active: Potency [1] 21.1 µM and 19.4 µM | Potency [2] 13.7 µM | Potency [3] 21.7 µM

CC(C)(CO)[C@@H](O)C(=O)NCCC(=O)NCCSSCCNC(=O)CCNC(=O)[C@H](O)C(C)(C)CO
inactive: Potency [1] | Potency [2] | Potency [3] | activation [9] -2.15%

CCn1cc(C(=O)O)c(=O)c2cc(F)c(N3CCN(C)CC3)cc21
inactive: activation [9] -5.08% | Potency [4] | activity change, negative = inhibition [5] 39.8% [at 23.6 µM] | Potency [6] | activity change, negative = inhibition [7] 12% [at 23.6 µM] | Potency [8]
active: Potency [1] 11.9 µM | Potency [3] 23.7 µM

CO[Si](C)(C)OC
inactive: Potency [1] | Potency [2] | Potency [3] | Potency [4] | Potency [5] | Potency [6] | activity change, negative = inhibition [7] -29.3%
active: Potency [8] 39.9 µM

COc1cc2c(cc1OC)C(=O)C(CC1CCN(Cc3ccccc3)CC1)C2 (centres undefined)
inactive: Potency [5] | Potency [6] | activity change, negative = inhibition [7] 1.04% [at 53 µM] | Potency [8]
active: Potency [1] 3.76 µM | Potency [2] 0.531 µM | Potency [3] 4.22 µM

CCC[C@@H]1C[C@@H](C(=O)N[C@@H]([C@H]2O[C@H](SC)[C@H](O)[C@@H](O)[C@H]2O)[C@H](C)Cl)N(C)C1
inactive: Potency [1] | Potency [2] | Potency [3]

Nc1nc2ccc(OC(F)(F)F)cc2s1
active: Potency [5] 38.9 µM
inactive: Potency [1] | Potency [2] | Potency [3] | Potency [4] | Potency [8]

Cc1cccc(N)n1
inactive: Potency [1] | Potency [3] | Potency [4] | Potency [5] | activity change, negative = inhibition [7] -13.9% | Potency [8]

O=C1OCCN1/N=C/c1ccc([N+](=O)[O-])o1
active: Potency [2] 11.9 µM | Potency [3] 23.7 µM
inactive: activation [9] -13.4% | Potency [4] | Potency [6] | activity change, negative = inhibition [7] 0.999% [at 53 µM] | Potency [8]

C[C@@H]1C[C@H]2[C@@H]3C[C@H](F)C4=CC(=O)C=C[C@]4(C)[C@@]3(F)[C@@H](O)C[C@]2(C)[C@@]1(O)C(=O)CO
inactive: Potency [1]
